Measurements reported in a compilation of properties of binary mixtures (doi:10.1007/s10973-015-4957-6).
The densities may have been worked out from excess volumes.

Assay: xn = mol fraction of the nth substance listed
Settings: 101 kPa

CN(CCO)CCO + CCCCCCn1cc[n+](C)c1.FC(F)(F)C(F)(F)[P-](F)(F)(F)(C(F)(F)C(F)(F)F)C(F)(F)C(F)(F)F
x1 = 1
Settings	mass density [kg/m3]
308.15 K	1030.3
313.15 K	1026.6
318.15 K	1023
328.15 K	1015.7

CCCCCCn1cc[n+](C)c1.FC(F)(F)C(F)(F)[P-](F)(F)(F)(C(F)(F)C(F)(F)F)C(F)(F)C(F)(F)F + CN(CCO)CCO
mass density [kg/m3]
Settings	x2 = 0	x2 = 0.1007	x2 = 0.1997	x2 = 0.2961	x2 = 0.4001	x2 = 0.4999	x2 = 0.5974	x2 = 0.7005	x2 = 0.8011	x2 = 0.8993
303.15 K	1544.2	1525.8	1505.5	1482.6	1453.2	–	1382.1	1329.8	1262.5	1172.2
308.15 K	1538.7	1520.3	1500	–	1447.8	1415.5	1376.9	1324.9	–	1167.8
313.15 K	1533.3	1514.8	–	1471.8	1442.5	1410.2	–	1320	1253.1	1163.5
318.15 K	1527.8	1509.4	1489	1466.3	–	1404.9	1366.6	1315.1	1248.5	1159.1
323.15 K	1522.5	–	1483.5	1460.9	1431.7	1399.5	–	1310.1	1243.8	1154.9
328.15 K	1517.1	–	1478	1455.4	1426.3	–	1356	1305.1	1239.1	1150.5
